Test results from the supplement of paper PMC5499739.
In all, about 16,000 sequences were measured (“Z-score”: median about -0.37, highest 2% from about 3.1 on). The list shows a part of the results.

The sequences below were run on RBM10 RRM1-ZnF-RRM2 (GST-tagged construct) (assay: RNAcompete 7-mer binding Z-score; higher = stronger binding preference).
How it was run: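 A designed pool of 241 399 RNAs, each up to 41 nt and transcribed from microarray-derived DNA templates, was used at 1.5 nmol with 20 pmol of GST-tagged RBM10 constructs. The mixture, in 1 ml Hepes pH 7.8 buffer with KCl, NaCl, glycerol, DTT, BSA and glutathione Sepharose beads, was held 30 min at 4°C and then washed four times for 2 min at 4°C. Bound RNA was read out by microarray hybridisation, and enrichment of each heptamer motif was scored as a one-sided Z-score over the probes carrying it.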

Sequence	RNAcompete 7-mer binding Z-score
AACCGUC	-0.792
CUACCAG	-0.748
CAAGCUC	-0.581
CCUUUAG	-0.832
CUCUGAG	-0.697
CAGCCAU	-0.861
UAAUAGG	0.742
GAAAGCC	-0.409
CACUGCG	-0.373
UAAUUAG	-0.311
CGACUGA	-0.406
CCUGGUU	-0.857
CGUCAAC	-0.581
UCACGCA	-0.653
UCAUGAC	-0.653
CGCCGCC	-0.69
UUUGGCG	-0.0561
GCGAGGG	3.86
CCAUGAA	-0.439
AACGGAU	1.66
GGCUGCU	-0.278
CUAAUGU	-0.551
CACCGAC	-0.551

Sequence	RNAcompete 7-mer binding Z-score
AAUUAAA	-0.555
UAGUGCU	-0.329
GUAAUCC	-0.337
UGAAACC	-0.686
UCUAUCC	-0.755
GAGAACU	-0.224
GGUUAGA	2.57
CGGGUCG	1.62
GGGACUU	0.884
UAAUCAC	-0.471
UUGAGCA	-0.165
CGCGUAC	-0.573
ACGUUCA	-0.719
CCCGGCA	-0.653
CACCAUC	-0.734
GGCGCCC	-0.482
CAGAUGA	0.0058
CGAUUAA	-0.493
AUUAGCG	-0.0379
GUGCGUA	0.483
GCGUACA	0.104
UAGGCCA	0.188
GGUCACC	-0.151

Sequence	RNAcompete 7-mer binding Z-score
CGAAGGA	1.62
AUCACGG	0.0131
AUGUCAC	-0.599
UGAGGGC	2.22
UCCGACC	-0.777
AGAGCGA	0.581
GUUGGGU	2.75
GGUCCCC	-0.151
ACAAUGC	-0.227
GCUAACC	-0.562
CAGGCUC	-0.424
CGUGCUC	-0.726
GAGAGUC	0.352
ACCCCAU	-0.643
CAAUCGA	-0.147
AAUACGG	0.931
GGAGGAG	2.84
AAGGCAG	2.66
GCCGCCG	-0.435
CGAAUAU	-0.395
GGUAUGA	1.89
AGUAAGC	-0.0233
UGUAGGC	0.512

Sequence	RNAcompete 7-mer binding Z-score
AGUCAAG	0.232
CCCCGGG	0.232
GAUUUUC	-0.686
GGACCAU	-0.00877
CACGGCC	-0.624
UCAUUCU	-0.752
ACAAAUC	-0.679
UUGAUAC	-0.457
AGCACAC	-0.522
ACAUUCU	-0.89
CCCGCUC	-0.65
CCCGUCG	-0.661
CCCAAGA	-0.653
AACAAAC	-0.213
CAGCCCA	-0.522
AGCCGUG	-0.395
UUGUCGC	-0.766
AAAGUUC	-0.646
AGUGAGG	3.11
UUCUGCG	-0.577
AACGGAA	1.91
UCGGGGA	1.7
UUUCUUC	-0.679

Sequence	RNAcompete 7-mer binding Z-score
UUGGCUA	-0.144
UAAUUGG	0.49
UUCUCCA	-0.755
GUAGAUC	-0.165
CUCAAUA	-0.712
AAGUGGC	1.18
GUGCCCC	-0.147
GAACCGA	-0.0853
GUUUGUU	-0.0161
AUAGCUC	-0.533
CCGUAUG	-0.493
GUUCAAA	-0.544
GGGCCAU	0.512
UUCCAUG	-0.344
UACUCCC	-0.908
CCCCGUA	-0.661
CUUGUAU	-0.774
GAAAUUU	-0.42
GGGGACG	2.27
GACUCGA	-0.457
CGAGGAC	0.731
UGAGCAU	-0.0634
UAUCAAU	-0.46

Sequence	RNAcompete 7-mer binding Z-score
GUAUCUG	-0.46
AAGUGAU	0.388
AUCGUAG	-0.114
AGGGCUC	0.00944
GGAUGGU	3.73
AGCGACG	0.65
AGUACGC	-0.468
UGCAGUG	0.487
UAUUCAC	-0.774
CCAAGAU	-0.504
CUUUAGG	-0.369
UCUCUGU	-0.821
ACCGUCC	-0.897
AAAGGGG	4.22
AACUAUG	-0.322
CAUCUCU	-0.945
CAAUGGU	1.25
GUAUAAG	0.913
UCAAGGU	0.854
CGCGUAU	-0.366
GCUUGAG	-0.187
UUACCAG	-0.453
ACGUGGC	0.428

Sequence	RNAcompete 7-mer binding Z-score
ACCGGCU	-0.694
UGAUUGU	-0.566
UAUUGGG	2.03
CCAAGCU	-0.697
CCGCACU	-0.897
UCUGUUG	-0.846
GGCUGGG	1.78
CUUCAUA	-0.81
ACGUAUG	0.137
AAACUCC	-0.73
CUCUGCU	-0.967
CCCACAA	-0.803
UGACCAA	-0.00148
UCUACGA	-0.635
CGCCCCC	-0.53
GCACGAU	-0.0233
UGCAAAG	0.294
AUCCGGA	-0.293
UAAGGUG	2.07
UGCGAUA	0.0459
CGUCCUG	-0.624
UUGACAU	-0.504
GCACAGG	1.27

Sequence	RNAcompete 7-mer binding Z-score
CGAUUGU	-0.643
AGAGCAA	0.108
GACCACC	-0.548
CACGCUG	-0.205
CAAUGUA	-0.0415
UCCAACU	-0.843
CGUAUUU	-0.602
AGGGCUA	1.17
UCGUGUU	-0.468
CGGUGGG	3.18
AAGCCUA	-0.675
CGAGGGA	3.11
CUUAGCG	-0.77
AUACUAC	-0.621
CGAGUGC	-0.0816
AGGGUUA	3.86
AUUGAUU	-0.431
UCCUUUG	-0.821
CCGCGCU	-0.664
UCGUGUA	-0.224
UCCGCAC	-0.755
CACGCUU	-0.883
